Measured values as given in the RNAGym collection of RNA variant scans (doi:10.1093/nar/gkz1192).
Read counts are not given, so values of variants with three or more changes are uncertain.

B1: CPEB3 Ribozyme (parent)
chain: UAACAGGGGGCCACAGCAGAAGCGUUCACGUCGCAGCCCCUGUCAGAUUCUGGUGAAUCUGCGAAUUCUGCUGUAUAUCUC

Variants of: B1
Assay: self-cleavage, relative activity (ratio to wild type); higher = more cleavage; in vitro, sequencing
How it was run: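 Barcoded CPEB3 ribozyme mutants, produced by rounds of error-prone PCR, self-cleaved while being transcribed with T7 RNA polymerase for 5 hours at 37°C and during a subsequent 15 min DNase I step before EDTA was added. Sequencing of template-switched cDNA on Illumina gave cleaved and total reads, and DNA sequencing assigned barcodes to variants. Each variant's relative activity is its cleaved/total read fraction divided by the unmutated ribozyme's fraction, averaged across three batches. A variant needed a minimum of 5 reads.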

Variant | self-cleavage
U25C A28G U43C U54C A65U | 0.2
U25A U26G U49C | 0.3
U25C A47G A56U | 0.75
U25C A28U U43A U69A U72A | 0.08
U25C A56U A75U | 0.08
U25A U31G A45U U69C | 0.16
U25A G33A U58C A64G U74A | 0.04
U25C A35U A64U U66C | 0.18
U25C A35G U43C U78A | 0.24
U25A U49A U51C G63C U67C U74C U78C | 0.08
U25C A45G U76A A77G | 0.39
U25C A56G U66A U69C U76A U78C | 0.09
U25A U49A U51A G53A U54C U67A | 0.06
U25A G42A G52A C62U | 0.35
U25A G61C G63A A64G A75U | 0.18
U25A U76A A77G | 0.1
U25C A28U U49A | 0.39
U25A U26C U51G A56G A75U | 0.08
U25A C40A U49A U51A | 0.18
U25C A47G U51G U66C U80C | 0.07
U25A U51C G61C | 0.06
U25C A35U C40U U43C A45U A65G | 0.11
U25C A45U U51A U54C A56U C68U U78A | 0.11
U25A U60A A65C U74A U80A | 0.08

Variant | self-cleavage
U25C A35U A64U | 0.33
U25A U26C A75G U78C | 0.05
U25A U31A U43C | 0.2
U25C A28U U31A U66C U67C | 0.06
U25C A45C U72C | 0.19
U25C A35U U67C | 0.14
U25A G42U A47G A56G | 0.18
U25C A57G U76A | 0.06
U25C A35G A57G A65G U67A A77C | 0.04
U25A U41G U58A U67A | 0.19
U25A U26C A35U U66C A77G | 0.12
U25C A28U A35G U60C | 0.14
U25C A35G U49A A56G | 0.47
U25C A45G U69C | 0.17
U25A U26A G63A A64G A65G | 0.19
U25C A35G U43C U51C U60C | 0.05
U25A U26G U49C U60A A64U | 0.08
U25C A28U A56U U74A | 0.07
U25C A56C U67C U78C | 0.06
U25C A35U A45U A56G | 0.19
U25C A47C U51C | 0.18
U25A U41C A47G U58C | 0.32
U25C A35G U41A U54C | 0.1
U25C A35U U41A C68U | 0.06

Variant | self-cleavage
U25C A28G C39G U48C U69A U78C | 0.12
U25A G30U G42A G53A U78A | 0.1
U25C A45U A47G U54A U72C | 0.17
U25C A56U C59U A64G U80C | 0.21
U25A U49A U72C | 0.22
U25C A45U A47U U54C | 0.14
U25A C37A A64U | 0.13
U25C A28U U66C | 0.13
U25C A35G U41A A57G U66C | 0.1
U25C A45U U48C G73U | 0.25
U25A U54C A65G U69C | 0.11
U25C A47G A56G A77U U80A | 0.06
U25C A35G U49A G53A G63A | 0.11
U25A U26A G53A U72A | 0.08
U25A U48G A64G U74C | 0.06
U25C A28G U66A | 0.47
U25C A47G U51C A64U U74C | 0.23
U25C A28G U41C A45G U58C | 0.31
U25C A45U U48C | 0.06
U25A U41C G42A A64U U67A U74A | 0.07
U25C A45U A64U U72C U80C | 0.15
U25C A47G U51A U67C | 0.12
U25A C62A A77G | 0.18
U25C A28G U58A | 0.19

Variant | self-cleavage
U25C A56G U69C | 0.14
U25C A47G U60C U72C | 0.25
U25A U51G U66C U72A | 0.11
U25A U26C U54C A64G U69G | 0.05
U25C A28G U41C | 0.44
U25C A47G U49C U51A | 0.22
U25C A28U A47G U78C | 0.15
U25C A35G G46A G52A U72A | 0.05
U25C A56G C62G C71G | 0.1
U25C A28U G33C U41G A45C U58C U69C | 0.07
U25C A45U C71A A77G | 0.11
U25C A28C U31A U43C | 0.09
U25A U26G A45U U51A U74A | 0.26
U25A C37U U72A | 0.1
U25C A56U A57G U78C | 0.1
U25C A47G A57C | 0.06
U25A U41C U51G U80C | 0.24
U25C A35G G36A U58C | 0.17
U25A U41C U54A | 0.19
U25C A35U U69C | 0.04
U25C A45C U76C U78C | 0.26
U25C A45G A57U | 0.13
U25A C44U C62U U74C | 0.08
U25C A28G U49C | 0.26

Variant | self-cleavage
U25A U48C U54C C59A | 0.13
U25C A28G A47U | 0.21
U25C A45U U48C U60A U72C G73U | 0.15
U25C A35U A47G U60A U74A | 0.15
U25A U67C U80G | 0.42
U25C A28U U48C G52C U54C | 0.14
U25C A57G A64G U78C | 0.12
U25C A35G A47G U72C | 0.23
U25C A28G C39A A77G | 0.05
U25C A28U A56G C62U A64G U69C U80A | 0.06
U25C A47C C50U | 0.1
U25C A28U A56G U58A G73A | 0.08
U25C A35U C44A | 0.22
U25A U49A U60A | 0.15
U25C A47G U72A | 0.29
U25C A35G U41A A45G | 0.38
U25A U41C U43G U49C G63U | 0.06
U25A U76C A77U | 0.22
U25C A47G G52C U69A U78C | 0.13
U25C A28G U72A A75G | 0.07
U25A U41C U69A | 0.11
U25A U41C U69C | 0.21
U25A U43C U67C | 0.15
U25C A57C A65G A77G | 0.14

Variant | self-cleavage
U25C A35U U78C | 0.09
U25C A35U C79U | 0.15
U25A C44A U76A A77U | 0.09
U25C A28G U43C G63A A65U | 0.12
U25A U51A G63C A64C | 0.08
U25C A45G U69A U76C U78C | 0.06
U25C A56G U78C | 0.18
U25C A35G A64G | 0.23
U25A U67C U78A | 0.14
U25C A57U U72C U80C | 0.55
U25C A56U C62U | 0.49
U25C A28G A35U A56G G61C U76A U80C | 0.04
U25C A45G A56U A64U | 0.22
U25A G30A A65G | 0.21
U25C A35G U51A A65C | 0.24
U25C A35G U41C A45C U78C | 0.1
U25A U54A U80C | 0.43
U25C A35U U58C U72C | 0.17
U25C A35U U43A U48C | 0.08
U25C A28G U31A G33U U69A | 0.07
U25C A35U A47G A65G U80C | 0.09
U25C A28U C38U C81U | 0.08
U25C A35G C37A A65U U72C | 0.21
U25C A28U U31A U51A U60C U78C | 0.08

Variant | self-cleavage
U25A U26A C27G U31A A45G U49C | 0.06
U25A U48C U69C U72C U78A U80C | 0.06
U25C A35C U49A | 0.23
U25C A57G U60C U66C | 0.03
U25A U49C C62U U76A | 0.04
U25A U78A U80C | 0.21
U25C A47G U66G | 0.49
U25A U31A U43C U78A | 0.05
U25C A35G U51C | 0.27
U25C A35G U51G | 0.35
U25C A28G U72G | 0.11
U25C A28G U72C | 0.31
U25A U49A A64U A65G A77U | 0.07
U25C A57G C71U C81U | 0.08
U25C A28U G30A A35U U51C U69A | 0.09
U25A U26C G70A U80C | 0.06
U25C A28G U69C | 0.27
U25C A56U C59U U74C | 0.08
U25A U54A U67C | 0.09
U25C A28G U60A A65G U67C A75G | 0.13
U25A G61C A64U U78C | 0.11
U25A U51C A75U | 0.33
U25A G33A U49A U69A U72C | 0.09
